# Measured values taken from the supplement of paper PMC12217912.
# This is one part of the list. The full chains were built here from the parent and the listed change. Inactive controls read about 0.05.
# B1: TEV protease; numbered along this chain (parent)
# chain: MGESLFKGPRDYNPISSSICHLTNESDGHTTSLYGIGFGPFIITNKHLFRRNNGTLVVQSLHGVFKVKDTTTLQQHLVDGRDMIIIRMPKDFPPFPQKLKFREPQREERICLVTTNFQTKSMSSMVSDTSCTFPSGDGIFWKHWIQTKDGQCGSPLVSTRDGFIVGIHSASNFTNTNNYFTSVPKNFMELLTNQEAQQWVSGWRLNADSVLWGGHKVFMVKPEEPFQPVKEATQL
# Variants of: B1
# Experiment: raw area under fraction-flipped curve 0-4 h after induction (AUC4h, not background-subtracted), DNA-recorder readout of cleavage of the substrate (dimensionless); higher = more cleavage of the substrate by the protease variant
# Conditions: temperature: 34 °C; time window: 0-4 h after rhamnose induction
# Protocol: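 In vivo DNA recorder in E. coli TOP10(DE3) ΔrhaA at 34 °C. Each TEVp single-site mutant (parent TEVp 0) is paired with a single-site variant of the 7-mer TEVs (canonical ENLYFQ|S). The substrate sits between flexible linkers in a Bxb1-sfGFP-TEVs-SsrA fusion, so cleavage stabilises Bxb1 and speeds flipping of a recombination array, read by NGS. The value is the raw area under the fraction-flipped curve over 0-4 h after rhamnose induction (AUC4h), with ≥20 reads per time point. It is not background-subtracted; inactive controls average about 0.047.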
# 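Note: Bxb1 expression induced with 0.2% (w/v) L-rhamnose at OD600 near 0.5, cultures sampled hourly, flipped fraction per protease–substrate barcode pair counted by paired-end Illumina sequencing.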
Variant,area with substrate ENLYCQS,area with substrate ENLYEQS,area with substrate ENLYHQS,area with substrate ENLYIQS,area with substrate ENLYKQS,area with substrate ENLYMQS,area with substrate ENLYNQS,area with substrate ENLYSQS,area with substrate ENLYVQS,area with substrate ENLYWQS,area with substrate ENLYYQS,area with substrate ENLYPQS,area with substrate ENLYRQS,area with substrate ENLYDQS,area with substrate ENLYGQS,area with substrate ENLYTQS,area with substrate ENLYQQS,area with substrate ENLYLQS
MGESLFKGPRDYNPISSSICHLTNESDGHTTSLYGIGFGPFIITNKHLFRRNNGTLVVQSLHGVFKVKDTTTLQQHLVDGRDMIIIRMPKDFPPFPQKLKFREPQREERICLVTTNFQTKSMSSMVSDTSCTFPSGDGIFWKHWIQTKDGQCGSPLVSTRDGFIVGIHSASNFTNTNNYFTSVPKNFMELLTNQEAQQWVSGWRLNADSVLWGGHKIFMVKPEEPFQPVKEATQL [V217I],0.0998,0.0573,0.06,0.0927,0.0748,0.0804,0.0544,0.0807,0.0933,0.0789,0.0673,,,,,,,
MGESLFKGPRDYNPISSSICHLTNESDGHTTSLYGIGFGPFIITNKHLFRRNNGTLVVQSLHGVFKVKDTTTLQQHLVDGRDMIIIRMPKDFPPFPQKLKFREPQREERICLVTTNFQTKSMSSMVSDTSCTFPSGDGIFWKHWIQTKDGQCGSPLVSTRDGFIVGIHSASNFTNTNNYFTSVPKNFMELLTNQEAQQWVSGWRLNADSVLWGGHKVFNVKPEEPFQPVKEATQL [M219N],0.0872,0.0503,,0.0547,,,0.071,,,0.088,,0.0883,0.0609,,,,,
MGESLFKGPRDYNPISSSICHLTNESDGHTTSLYGIGFGPFIITNKHLFRRNNGTLVVQSLHGVFKVKDTTTLQQHLVDGRDMIIIRMPKDFPPFPQKLKFREPQREERICLVTTNFQTKSMSSMVSDTSCTFPSGDGIFWKHWIQTKDGQCGSPLVSTRDGFIVGIHSASNFTNTNNYFTSVPKNFMELLTNQEAQQWVSGWRLNADSVLWGGHKVFMVKKEEPFQPVKEATQL [P222K],0.0776,0.0557,0.0682,0.121,0.0675,0.0628,0.0506,0.118,,,0.0622,0.0705,0.0507,0.0437,0.0666,,,
MGESLFKGPRDYNPISSSICHLTNESDGHTTSLYGIGFGPFIITNKHLFRRNNGTLVVQSLHGVFKVKDTTTLQQHLVDGRDMIIIRMPKDFPPFPQKLKFREPQREERICLVTTNFQTKSMSSMVSDTSCTFPSGDGIFWKHWIQTKDGQCGSPLVSTRDGFIVGIHSASNFTNTNNYFTSVPKNFMELLTNQEAQQWVSGWRLNADSVLWGGHKVFMVKPEEGFQPVKEATQL [P225G],0.0951,0.0542,0.0618,0.0887,0.0974,0.0745,0.0657,0.0603,0.117,0.0879,,,0.0598,0.051,0.0565,0.0718,,
MGESLFKGPRDYNPISSSICHLTNESDGHTTSLYGIGFGPFIITNKHLFRRNNGTLVVQSLHGVFKVKDTTTLQQHLVDGRDMIIIRMPKDFPPFPQKLKFREPQREERICLVTTNFQTKSMSSMVSDTSCTFPSGDGIFWKHWIQTKDGQCGSPLVSTRDGFIVGIHSASNFTNTNNYFTSVPKNFMELLTNQEAQQWVSGWRLNADSVLWGGHKVFMVKPEEMFQPVKEATQL [P225M],0.0942,0.0546,0.0636,0.106,0.0941,0.0986,0.075,0.0671,0.118,0.0809,0.0539,0.0764,0.0645,0.0374,0.0678,0.0615,0.0671,
MGESLFKGPRDYNPISSSICHLTNESDGHTTSLYGIGFGPFIITNKHLFRRNNGTLVVQSLHGVFKVKDTTTLQQHLVDGRDMIIIRMPKDFPPFPQKLKFREPQREERICLVTTNFQTKSMSSMVSDTSCTFPSGDGIFWKHWIQTKDGQCGSPLVSTRDGFIVGIHSASNFTNTNNYFTSVPKNFMELLTNQEAQQWVSGWRLNADSVLWGGHKVFMVKPEEPFQGVKEATQL [P228G],0.0922,0.0602,0.0747,0.143,0.0594,0.106,0.0736,0.0783,,0.0869,0.0564,0.0664,0.0998,0.0661,0.0737,0.0069,0.0589,
MGESLFKGPRDYNPISSSICHLTNESDGHTTSLYGIGFGPFIITNKHLFRRNNGTLVVQSLHGVFKVKDTTTLQQHLVDGRDMIIIRMPKDFPPFPQKLKFREPQREERICLVTTNFQTKSMSSMVSDTSCTFPSGDGIFWKHWIQTKDGQCGSPLVSTRDGFIVGIHSASNFTNTNNYFTSVPKNFMELLTNQEAQQWVSGWRLNADSVLWGGHKVFMVKPEEPFQPVHEATQL [K230H],0.0959,0.0662,,,0.0627,0.0795,0.075,0.0774,0.106,0.1,,0.0657,0.0594,0.0465,0.0644,,0.0757,0.071
MRESLFKGPRDYNPISSSICHLTNESDGHTTSLYGIGFGPFIITNKHLFRRNNGTLVVQSLHGVFKVKDTTTLQQHLVDGRDMIIIRMPKDFPPFPQKLKFREPQREERICLVTTNFQTKSMSSMVSDTSCTFPSGDGIFWKHWIQTKDGQCGSPLVSTRDGFIVGIHSASNFTNTNNYFTSVPKNFMELLTNQEAQQWVSGWRLNADSVLWGGHKVFMVKPEEPFQPVKEATQL [G2R],,0.0767,,,0.052,,,0.096,,,,0.0932,0.0579,0.0665,,,,
MGESAFKGPRDYNPISSSICHLTNESDGHTTSLYGIGFGPFIITNKHLFRRNNGTLVVQSLHGVFKVKDTTTLQQHLVDGRDMIIIRMPKDFPPFPQKLKFREPQREERICLVTTNFQTKSMSSMVSDTSCTFPSGDGIFWKHWIQTKDGQCGSPLVSTRDGFIVGIHSASNFTNTNNYFTSVPKNFMELLTNQEAQQWVSGWRLNADSVLWGGHKVFMVKPEEPFQPVKEATQL [L5A],,,,0.136,,,0.0757,0.0741,,,,0.0772,0.0528,0.0105,,0.0805,,
